# From the supplement of paper PMC11417369
# The other results are listed elsewhere or left out.
# System: PfAP2-HC AP2 domain (GST-tagged)
# Assay: gcPBM binding intensity (ln(normalized median fluorescence intensity)); higher = stronger DNA binding
# In short: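 Plasmodium falciparum DNA-binding domains carrying a GST tag were expressed in E. coli and applied for 1 h, at about 25 μg on average, to an Agilent 4 × 180k array. The array held primer-extended double-stranded 36-bp intergenic genomic probes together with negative controls, and binding took place in 1× PBS with 1% milk, 0.2 mg/ml BSA, 0.5% salmon testes DNA and 0.03% Triton X-100. An Alexa488 anti-GST antibody detected bound protein, and the array was scanned at 488 nm. Binding intensity is taken as the highest Masliner-normalised natural-log median intensity across replicate spots of either probe orientation.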
row,Sequence,gcPBM binding intensity (ln)
1,CCTTGCCCCAGGAGTTCACACACATAATAGATTGTC [CACACA_site8138],9.98
2,AAAAGAAGAAACAAAACACACACAGTCTTCTTTTCT [CACACA_site9015],10.2
3,TTTATGAGGTTACTATGTACGCAAATTATGTAATAA [XGTACX_site325],9.44
4,ATTTGTGTTATTCGAAGTACGGATCATTTGAAATAA [XGTACX_site2510],9.49
5,TCAAATTATTAAAATACACACATATTATATATATAT [CACACA_site2530],9.82
6,AGCAATTTGGGGTGTACACACACCTTATTTAAATTA [CACACA_site1157],9.79
7,TTACCTCTTTGAAATATACACACTAAACATATCAAC [CACACA_site2455],9.68
8,GACACCTGCATGAAAGTGCAAAATAGAAAAGGAACA [GTGCAC_site9593],9.65
9,AAATACCTTATATATACACACTATGTTTTTCTTTTT [CACACA_site4792],9.97
10,AACACGCACAGACACACACACAAAAATGATTAAAAA [CACACA_site7195],10.3
11,AAGGAATAATAATAAATGTAAAGAAAAGCATACTGA [CACACA_negctrl_site36],9.76
12,TGTGAAAATTATGGGGCATGCAATACTTTAAAAATA [TGCATGCA_site653],9.68
13,CAAATGTAGAAAATGTGTACATAAAAAAAAAAAAAA [XGTACX_site8276],9.7
14,AGTCAATTTTGTGTGTCAACATTTATATAAAGAATG [TGCATGCA_negctrl_site400],9.71
15,TTTTGGCTGATCAGATTTAACAAAAAAAAAAAAAAA [CACACA_negctrl_site671],8.93
16,CCTTCAATTTACATAACACACATTTAACCATAATAA [CACACA_site2394],9.65
17,CAAATATATATTTTCTGTACAAATACAATTAATACT [XGTACX_site2694],9.54
18,TTTAGCCAATTTTTAAAGTTTAAAAAAGAAAAAAGA [CACACA_negctrl_site118],9.15
19,TATTAAAAATACATATGTACTCATAGCATAAAACAT [XGTACX_site8686],9.69
20,ATATATATATTTGTGTGTACATATTAATTTGTATGA [XGTACX_site4047],9.86
21,AACGCGAACAATTTATAGATAACTTTTAATTATTAT [GTGCAC_negctrl_site179],9.55
22,AATATATATATAGGATGTACACATAATTCAAATACA [XGTACX_site6368],9.92

row,Sequence,gcPBM binding intensity (ln)
1,ATTTAATACAAATACACACACAAATATATACATATA [CACACA_site3747],10.4
2,TATATATATATAAACTGTACTATTTTATGTTAAAAG [XGTACX_site3630],9.62
3,ATGGTATATCCAAATAAACACACGTAAATACATAAA [CACACA_site1682],9.84
4,ATACATTTTTGTAAAAGTACATATACATGCCCCCTT [XGTACX_site1367],9.72
5,TTCCAAAATTGCATTTGTACCCAAAAAATGTATACG [XGTACX_site7680],9.46
6,GTAAGTTTGAATACACGTACAAATTTATTAAAGTCC [XGTACX_site6722],9.72
7,AGATATTAAAACGTTACACACATTTATATATCTTCT [CACACA_site908],9.84
8,ATCAGTCGGCAGGACAGTACACAGTAGCCAGGAAAT [XGTACX_site2003],9.68
9,GCTTTTTATTTTTACCGTACATTATATATGTATATA [XGTACX_site808],9.94
10,ATATTATTAATTTATAGTACTCATTTTTTTTTTTTT [XGTACX_site3536],9.61
11,TTTCTAGTTACAAGAGTGCATAATATATAAAAATAA [GTGCAC_site9874],9.48
12,TATAAATACAATTCACAAGAGATCATGTATCAAACC [CACACA_negctrl_site1219],9.71
13,TATATATATATATATACACACATTTTTAATGATAAA [CACACA_site2695],9.62
14,ATATAATAAATATGTTGTACTATAAAAAATAGCCAT [XGTACX_site4710],9.66
15,TTTATAATTTATATCACACATATATCTGTAATAAAT [CACACA_site5048],9.6
16,ATCTCTGTAAAGATCACACATATATTTTTGTTATAT [CACACA_site5094],9.78
17,TATATATTATATATATGTACATATTGTTGTGTATAT [XGTACX_site767],9.76
18,CATATATGTTATATTTAACACACATATAAGGTACAT [CACACA_site8105],9.74
19,CAGCTCTTAAAAATTACACACATATACACATATATA [CACACA_site9073],9.83
20,TTATTACACACATATGTGCACATATAAAAGTACACG [GTGCAC_site9581],9.76
21,TTATATTTTCAGAATAGTACACATATATACATATAT [XGTACX_site2519],9.86
22,AAAAATTCTTGGCGCACACACTTTAAAAATTAAAAA [CACACA_site4498],9.81

row,Sequence,gcPBM binding intensity (ln)
1,GATCATTTAAAATAAGTAATATTTTTTTTACTTTTG [TGCATGCA_negctrl_site602],9.46
2,TTATAAAAGAAAAAAAAAAAAAAAAAAAAAAAAAAA [CACACA_negctrl_site1006],8.67
3,ACTAATTACTATAAAACACACATATATATATATATA [CACACA_site2591],9.87
4,TTAGTCGAATGATGTACACACATACAAAACATTTAT [CACACA_site6076],9.93
5,AGAAAATATTTTGGTTGTACAGGCGATTTATATGTT [XGTACX_site7253],9.73
6,AAAAAAAAAAAAAAAAAAAAAAAAAAAAGAAAAAAG [GTGCAC_negctrl_site583],8.98
7,CGTGGGAGCAGACACACACACACACGCATATTTATA [CACACA_site6290],10.3
8,ATGGACAAAAAATATATACACACGAGGAAACCAACA [CACACA_site3726],10.2
9,TTTTGTTTTTACGAATACTTTTTTAATTTTATTTAT [TGCATGCA_negctrl_site395],9.55
10,CATGCATACTACATCTGTACACATACATTATATTTA [XGTACX_site2495],9.9
11,AGCATTTTAAAAGAAAAAAAAAAAAAAAAAAAAATA [GTGCAC_negctrl_site723],9.17
12,ATCTATGTTCCTTTTACACACATAATCTTTTTTTTA [CACACA_site5468],9.98
13,ATATATATATATTATACACACAAAAATATTTTGTAT [CACACA_site266],9.77
14,ATAACATTCTATGTTGCACACAAAGAGAAAAATTTA [CACACA_site9322],9.79
15,ACGCAATATTAACAAGTGCATTATAACACATAACAT,9.63
16,GTAAATTATATAACAAATAAAAATGTACATATATAT [CACACA_negctrl_site408],9.81
17,TATACTTTATATATTTTGTATATATATTTTTTTTAT [TGCATGCA_negctrl_site530],9.7
18,TCTTGTTATTTAAATGCATGTTGATTTTAAAAAATT [TGCATGCA_site840],9.53
19,AATAAAAAGTAATAATAACGTATAATTTATTATACT [TGCATGCA_negctrl_site414],9.57
20,ATATATATAGATTGTACACACATTTATGCATATATA [CACACA_site3222],9.89
21,TTTTTTTTTAGAAAAACATGCATGTCCTAAAAATAA [TGCATGCA_site684],9.25
22,TGGCAAAATAGGCACACACACATATACATCTATATT [CACACA_site6626],10.7

row,Sequence,gcPBM binding intensity (ln)
1,ATATGATAAATTATATGTACTTAAAATATATTATAA [XGTACX_site5904],9.6
2,AAAAAAAAAAAAAAAAAAAAAAAAACAATGAATTTA [GTGCAC_negctrl_site698],9.64
3,AGTAGATATAATTATAGTACTTTGATGTTTTCTTTA [XGTACX_site5038],9.62
4,ATGTATTTATTATTTAGTACACATTATTTTCTTATA [XGTACX_site6365],9.7
5,AAATTTTCTTTTAAGTGTACGAAATTTAGTATTTCA [XGTACX_site7819],9.46
6,TAAACAGTATGCAACGCATGCGTTGTTATATATAAA [TGCATGCA_site232],9.79
7,ATTTTTTTTTTTTTTTTTTTATTCTTAATTCATATA [CACACA_negctrl_site342],9.57
8,TTTTTGTTTGTTCACGACTACATTATGTCATAAATG [CACACA_negctrl_site597],9.62
9,TATATATAAATATATACACACATGAAAATAAATAAA [CACACA_site2514],9.85
10,TTTTTCTATATTTTCTTTTATAAAATATATAATTTT [GTGCAC_negctrl_site345],9.57
11,GTCATATATTATAATAGTACATAAATAATTGATGCC [XGTACX_site3567],9.68
12,ATAGTTATTTTATAGCGTACACAATAAATATATAAA [XGTACX_site4445],9.7
13,CACAGAAATAGAGATACACACACACCGATATTTATG [CACACA_site9313],10.8
14,AGGTAGAAAAAAGACACACACATTATGTATATATAT [CACACA_site377],10.1
15,TTATAGGATCAAGCGCGTACATATCTTTATAAAAGA [XGTACX_site5775],9.51
16,ATATATATATATGTGTGTACATATATGTGGATGGAT [XGTACX_site6240],10.1
17,AATAACAAAATATTAACACACATAACATATTATAAA [CACACA_site2803],10.1
18,TTTTTTCATATAAATACATGCACACAAAAATATCAA [TGCATGCA_site602],9.63
19,TAATGTTTTTTTTGTTTACCAAAAATAATACATTAT [CACACA_negctrl_site203],9.53
20,ATATACAAATATATATATATATATATATATATATAT [CACACA_negctrl_site886],9.72
21,TATTTCTTTATTGGCACACATTTTTTCAATTATATA [CACACA_site4975],10.1
